# Data: PubChem BioAssay AID1347165 (National Center for Advancing Translational Sciences (NCATS), 2019)
# The campaign covered roughly 220,000 compounds. About 5,700 (2.6%) were called active. Inconclusive means that the source gave no clear call. Such entries were picked first, then a sample of the others. Calls follow the shape of the dose curve; as a rule, active = well fitted inhibition curve with a large enough effect; inconclusive = small, poorly fitted or top-dose-only effect; inactive = no such curve, though single readings can be large or run the other way. Where the call is inconclusive, the potency comes from a doubtful curve fit.
# Molecular target: Lysine-specific demethylase 5B (Homo sapiens) (UniProt Q9UGL1)
# Chain of UniProt Q9UGL1 (Q9UGL1 whole entry, looked up): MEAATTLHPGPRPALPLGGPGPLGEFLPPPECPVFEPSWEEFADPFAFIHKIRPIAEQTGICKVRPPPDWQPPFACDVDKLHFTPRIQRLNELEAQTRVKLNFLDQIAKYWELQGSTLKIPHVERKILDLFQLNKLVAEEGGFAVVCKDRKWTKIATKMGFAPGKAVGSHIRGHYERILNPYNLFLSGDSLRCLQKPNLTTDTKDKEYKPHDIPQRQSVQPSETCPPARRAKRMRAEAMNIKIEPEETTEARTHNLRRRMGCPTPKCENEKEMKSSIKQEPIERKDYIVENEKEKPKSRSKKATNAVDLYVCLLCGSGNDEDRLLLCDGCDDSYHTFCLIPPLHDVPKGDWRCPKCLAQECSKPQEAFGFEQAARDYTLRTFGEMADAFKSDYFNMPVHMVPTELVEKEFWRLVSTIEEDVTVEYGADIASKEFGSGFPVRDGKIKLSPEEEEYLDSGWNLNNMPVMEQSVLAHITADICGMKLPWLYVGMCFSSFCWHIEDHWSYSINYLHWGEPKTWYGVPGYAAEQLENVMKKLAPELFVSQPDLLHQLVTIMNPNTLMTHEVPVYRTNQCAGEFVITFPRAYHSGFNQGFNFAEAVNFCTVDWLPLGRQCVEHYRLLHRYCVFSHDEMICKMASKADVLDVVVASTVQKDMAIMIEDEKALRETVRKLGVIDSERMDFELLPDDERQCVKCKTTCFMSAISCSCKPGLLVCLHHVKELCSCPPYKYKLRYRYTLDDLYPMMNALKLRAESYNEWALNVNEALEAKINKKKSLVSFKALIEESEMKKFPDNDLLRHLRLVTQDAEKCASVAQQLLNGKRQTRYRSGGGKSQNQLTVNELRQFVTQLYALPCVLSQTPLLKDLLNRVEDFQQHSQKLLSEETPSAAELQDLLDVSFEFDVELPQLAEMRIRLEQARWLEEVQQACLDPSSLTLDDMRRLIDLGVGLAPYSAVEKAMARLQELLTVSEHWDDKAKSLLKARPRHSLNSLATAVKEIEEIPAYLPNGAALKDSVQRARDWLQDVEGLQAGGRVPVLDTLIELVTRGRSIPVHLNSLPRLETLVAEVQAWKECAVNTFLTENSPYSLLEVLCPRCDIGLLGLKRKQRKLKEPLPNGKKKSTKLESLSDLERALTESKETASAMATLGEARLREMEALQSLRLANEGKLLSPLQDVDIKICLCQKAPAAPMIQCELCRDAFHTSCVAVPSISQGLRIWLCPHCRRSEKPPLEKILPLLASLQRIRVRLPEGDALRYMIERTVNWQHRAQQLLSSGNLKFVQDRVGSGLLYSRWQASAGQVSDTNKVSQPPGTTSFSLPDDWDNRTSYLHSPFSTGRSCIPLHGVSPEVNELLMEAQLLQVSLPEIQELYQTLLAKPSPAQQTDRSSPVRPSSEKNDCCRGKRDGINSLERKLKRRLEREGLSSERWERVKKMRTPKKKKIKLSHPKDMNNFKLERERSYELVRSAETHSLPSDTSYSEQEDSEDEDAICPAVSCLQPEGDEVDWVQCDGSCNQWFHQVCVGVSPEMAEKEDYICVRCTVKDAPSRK
# Assay: Primary screen for KDM5B Histone Demethylases FDH-coupled qHTS; also: nearly all actives have a fitted effect of over 70% in size; as to activity change, negative = inhibition: 0% is about no effect
# Conditions: FDH-coupled NADH fluorescence (FDH is formaldehyde dehydrogenase); activity change, negative = inhibition: at 57.7 µM (top of the series) unless noted
# Outline: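 Coupled FDH/NAD⁺ fluorescence readout. KDM5BΔAP 200 nM final; compound titration, 10 min RT preincubation; substrate mix 12.5 µM H3K4me3, 25 µM 2-OG, 50 µM Fe(II), 100 µM ascorbate, 0.25 mM NAD⁺, 0.25 U/mL FDH; ΔRFU over 30 min.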
# Potency is read from the fitted curve at half-maximal effect; tags tell the direction and shape of the fitted curve.
SMILES,Potency,"activity change, negative = inhibition"
CCn1cc(CN2CC[C@H]3C(=O)NCCCCCCN(Cc4ccncc4)[C@@H]3C2)c(C)n1,"inconclusive: 17.8 µM [inhibitor, single point]",
CCOc1ccc(C(=O)Nc2ncc(C)s2)cc1OCC,inactive,
CC(=O)N1CC[C@@H](CC(=O)O)[C@@H](CC2=NCCc3ccccc32)C1,inactive,
C=CCNC(=S)Nc1ccc(Cl)c(Cl)c1,inactive,
CCOC(=O)N1CCc2c(sc3c2c(=O)n(Cc2ccccc2)c(=O)n3CC(=O)Nc2c(C)cccc2C)C1,inactive,
O=C(NC1CC1)c1cc(C2CC2)nc2onc(C3CCNC3)c12 (stereo not drawn),"inconclusive: 79.4 µM [inhibitor, partial curve]",
CN(C)CCNC(=O)c1cc(-c2ccccc2F)cc2c1OCCN2Cc1cccnc1,active: 35.5 µM,
CCc1ccc(-n2c(=O)c3cccnc3n2CC(=O)NCc2ccc(F)cc2)cc1,"inconclusive: 35.5 µM [inhibitor, partial curve, poor fit]",
CCOc1ccc(-c2nc(CNC(=O)Nc3ccc(C)c(Cl)c3)c(C)o2)cc1,inactive,
O=C(c1cc2cc(F)ccc2[nH]1)N1CCCC(CO)(Cc2cccc(Cl)c2)C1 (stereo not drawn),"inconclusive: 31.6 µM [inhibitor, single point]",
Cn1ccnc1CN1CCN(CC2(O)CNCCOC2)CC1 (stereo not drawn),"inconclusive: 15.8 µM [inhibitor, partial curve, poor fit]",
F[C@@H]1CN(CC2CC2)C[C@@H]1OCc1nc2ccccc2o1,"inconclusive: 31.6 µM [inhibitor, single point]",
COC[C@H]1CCCN1Cc1cn(-c2ccccc2C)nc1-c1ccc(OC)c(F)c1,inactive,
Cc1cc(O)c(C(c2cccc(F)c2)N2CCC(C)CC2)c(=O)n1Cc1ccco1 (stereo not drawn),"inconclusive: 31.6 µM [inhibitor, single point]",
O=C(NCCc1ccc(Cl)cc1)c1cccn1-c1nnc(N2CCCCC2)s1,"inconclusive: 25.1 µM [inhibitor, partial curve, poor fit]",
COc1ccc([C@H]2C[C@@H](O)[C@@H](O)[C@@H]2NCc2ccc(Cl)cc2)cc1,inactive,
CN(C1CCCCC1)S(=O)(=O)c1ccc(C(=O)Nc2sc3c(c2C(N)=O)CC(C)(C)NC3(C)C)cc1,"inconclusive: 70.8 µM [inhibitor, single point]",
CCOC(=O)c1ccccc1NC(=O)c1c(F)cccc1F,inactive,
Oc1c(C(Nc2nccs2)c2ccc(C(F)(F)F)cc2)ccc2cccnc12 (stereo not drawn),"inconclusive: 35.5 µM [inhibitor, single point]",
CCc1nnc2ccc(NCc3ccc(F)cc3)nn12,"inconclusive: 31.6 µM [inhibitor, partial curve]",
Cn1cc(C(=O)NCC2CN(Cc3cccc(OC(F)(F)F)c3)CC23CN(c2ccccc2)C3)cn1 (stereo not drawn),"inconclusive: 39.8 µM [inhibitor, single point]",
CCCc1noc(-c2cccn3c(CNC(=O)c4ccccc4F)nnc23)n1,"inconclusive: 15.8 µM [inhibitor, partial curve, poor fit]",
Nc1nc(-c2ccc(Cl)cc2)nn1C(=O)c1ccc(Cl)cc1,inactive,

SMILES,Potency,"activity change, negative = inhibition"
O=C(CSc1ccc2nc(-c3ccccc3)cn2n1)Nc1ccccc1C(F)(F)F,"inconclusive: 14.1 µM [inhibitor, partial curve, poor fit]",
O=C(Nc1ccc(Cl)nc1)c1cccn2nccc12,active: 35.5 µM,
COc1cccc(-c2cc(C(F)(F)F)nc(-n3nc(C)c(Br)c3C)n2)c1,,inconclusive: -38.8% [inhibitor]
O=C(CCc1ccc(-c2ccc(Cl)cc2)[nH]1)N1CC[C@H](CO)[C@H](O)C1,"inconclusive: 28.2 µM [inhibitor, partial curve, poor fit]",
O=C(Cc1ccc(Br)cc1)Nc1nc2c(s1)CCCC2,inactive,
COc1ccc(CC(=O)N2CCC(Oc3nccnc3N(C)C)C2)cc1 (stereo not drawn),"inconclusive: 31.6 µM [inhibitor, partial curve]",
Cn1cccc1CN1C[C@@H](CO)[C@H](NC(=O)c2ccccc2)C1,"inconclusive: 22.4 µM [inhibitor, partial curve]",
Cc1ccc2[nH]c(CN3CCCC4(CC3)CN(C)C(=O)O4)cc(=O)c2c1 (stereo not drawn),"inconclusive: 15.8 µM [inhibitor, partial curve, poor fit]",
Cc1ccc(NC(=O)c2cccc(NC(=O)N3CCSc4ncccc43)c2)cc1Cl,"inconclusive: 28.2 µM [inhibitor, partial curve, poor fit]",
COc1cccc(N2CCN(C(=O)C3CCCN(Cc4cccnc4)CCC(=O)NCC3)CC2)c1 (stereo not drawn),inactive,
COc1nccnc1NC1CCNCC1,active: 15.8 µM,
CCOc1ccc(-c2nonc2NC(=O)c2oc3ccccc3c2C)cc1OCC,inactive,
CC(=O)NC(CC(=O)Oc1ccc(-c2ccc(C#N)cc2)cc1)c1ccc(C)cc1 (stereo not drawn),"inconclusive: 39.8 µM [inhibitor, single point]",
CCN(Cc1noc(C)n1)C(=O)CC1C(=O)NCCN1CC(C)(C)C (stereo not drawn),"inconclusive: 15.8 µM [inhibitor, single point]",
COc1cccc(CN2CC[C@@H](CO)N(C)c3nc(C)ccc3C2)c1,active: 35.5 µM,
Cc1cc(Cl)ccc1-c1cccc(CN)c1,inactive,
CCC1Oc2ccc(NC(=O)c3cccs3)cc2CN(Cc2ccc(F)cc2)C1=O (stereo not drawn),"inconclusive: 25.1 µM [inhibitor, single point]",
CCC(C)c1ccccc1NC(=O)c1cc(C)nc2ccccc12 (stereo not drawn),inactive,
Cc1oc(-c2nc(C#N)c(NCc3ccccc3)o2)cc1S(=O)(=O)N1CCCC1,"inconclusive: 28.2 µM [inhibitor, partial curve, poor fit]",
Cn1c(=O)c2c(nc(N3CCOCC3)n2CC(=O)c2ccc(Cl)cc2)n(C)c1=O,inactive,
Cc1ccc(C(=O)N2CCc3nc(OCC4CC4)ccc3C2)cn1,inactive,
CN(Cc1ccccc1)C(=O)c1cc(-c2ccncc2)nc2ccccc12,inactive,
Cc1ccc(-c2cn3c(n2)N(C(=O)c2sc(C)nc2C)CCC3)cc1,inactive,

SMILES,Potency,"activity change, negative = inhibition"
CC1=NN(c2ccccc2)C(=O)C1/C=C1/NC(=S)NC1=O (stereo not drawn),"inconclusive: 17.8 µM [inhibitor, partial curve, poor fit]",
CCc1nc(NCC(C)O)c(C#N)c2c1CCCC2 (stereo not drawn),"inconclusive: 28.2 µM [inhibitor, partial curve, poor fit]",
Nc1nccnc1C(=O)Nc1ccc(C(=O)NCc2ccc(F)cc2)cc1,"inconclusive: 25.1 µM [inhibitor, partial curve, poor fit]",
COc1ccc2[nH]c(C(=O)N3C[C@@H](Oc4cccnc4)C[C@H]3C(=O)N3CCCC3)cc2c1,inactive,
CCC(=O)Nc1sc2c(c1C(=O)Nc1ccc(OC)cc1)CCC(C(C)(C)C)C2 (stereo not drawn),"inconclusive: 39.8 µM [inhibitor, single point]",
CS(=O)(=O)N1CC[C@@H]2C(=O)NCCCCCCN(Cc3ccncc3)[C@@H]2C1,"inconclusive: 25.1 µM [inhibitor, single point]",
CC(=O)NCCC1CCCCN1Cc1nc(C2(c3ccc(C)cc3)CCCC2)no1 (stereo not drawn),"inconclusive: 31.6 µM [inhibitor, partial curve, poor fit]",
CCC1Oc2ccc(NC(=O)c3ccc(F)cc3F)cc2CN(Cc2ccc(Cl)cc2)C1=O (stereo not drawn),"inconclusive: 25.1 µM [inhibitor, partial curve]",
COc1ccc(F)cc1S(=O)(=O)NCCc1csc(-c2ccc(Cl)cc2)n1,"inconclusive: 31.6 µM [inhibitor, partial curve, poor fit]",
COc1cccc(CN2CCn3c(nnc3[C@@H]3C[C@@H](O)CN3C)C2)c1,"inconclusive: 22.4 µM [inhibitor, partial curve, poor fit]",
CCc1ccc(NC(=O)C2CCN(c3nnc(-n4c(C)ccc4C)s3)CC2)cc1,"inconclusive: 1.26 µM [inhibitor, full curve, poor fit]",
CCOc1ccc(-n2nc(CO)c(C(=O)NCc3ccc(Cl)cc3)n2)cc1,"inconclusive: 3.55 µM [inhibitor, full curve, poor fit]",
CN(C)S(=O)(=O)c1ccc(N2CCCCC2)c(C(=O)N2CCCc3ccccc32)c1,inactive,
Cc1ccccc1COc1ccc2c(C)cc(=O)oc2c1,"inconclusive: 31.6 µM [inhibitor, partial curve, poor fit]",
Cc1ccc(-c2nnc(SCCOc3ccccc3)o2)cc1,"inconclusive: 25.1 µM [inhibitor, single point]",
CCn1cnnc1-c1nn(C)c2c1CN(C(=O)C(C)c1ccccc1)CC2 (stereo not drawn),"inconclusive: 31.6 µM [inhibitor, partial curve]",
COc1ccc(Br)c2c1-c1nc(NC(=O)c3cccc(C)c3)sc1C2,"inconclusive: 25.1 µM [inhibitor, partial curve, poor fit]",
O=C1CN(C(=O)CCC(=O)N2CCCC(c3nc(C4CCOCC4)no3)C2)c2ccccc2N1 (stereo not drawn),"inconclusive: 17.8 µM [inhibitor, partial curve]",
Cc1cccc(CSc2nnc(COc3ccc(Cl)c(C)c3)n2C)c1,inactive,
COc1ccccc1N1CCN(c2ccc3cc(S(=O)(=O)N4CCCCC4)ccc3n2)CC1,"inconclusive: 31.6 µM [inhibitor, partial curve, poor fit]",
O=C(NCC(=O)N1CCc2ccccc21)NCc1ccccc1,inactive,
Brc1ccc(-c2ccc(CNCCSc3nnnn3-c3ccccc3)o2)cc1,"inconclusive: 25.1 µM [inhibitor, single point]",
